# Measurements: article PMC12128885, “Myricetin-bound crystal structure of the SARS-CoV-2 helicase NSP13 facilitates the discovery of novel natural inhibitors” (Acta Crystallographica Section D: Structural Biology, 2025)
# Tests used:
# SARS-CoV-2 NSP13 [1] = target: T1, SARS-CoV-2 NSP13 (Severe acute respiratory syndrome coronavirus 2, UniProt P0DTD1); settings: read-out: IC50, unwinding activity; 3 nM NSP13, 1 mM ATP, 750 nM annealed DNA substrate, 10 min pre-incubation at RT
# SARS-CoV-2 NSP13 [2] = target: T1, SARS-CoV-2 NSP13; assay: NSP13 ATPase assay (absorbance-based, Biomol Green); assay type: biochemical; settings: 30 nM NSP13, 400 µM ATP, 30 min at RT
structure (smiles),measurement,setting,value
"O=C(/C=C/c1ccc(O)c(O)c1)O[C@H](Cc1ccc(O)c(O)c1)C(=O)O [Rosmarinic acid, (2R)-3-(3,4-Dihydroxyphenyl)-2-[(E)-3-(3,4-dihydroxyphenyl)prop-2-enoyl]oxypropanoic acid]",IC50,SARS-CoV-2 NSP13 [1],3.83 µM
same,"IC50, ATPase activity",SARS-CoV-2 NSP13 [2],No inhibition
